Each structure is given as a SMILES string. Hit rate of the full screen: of about 39,000 compounds, about 220 (0.56%) showed activity. The list shows a part of the results.
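Further: static incubation at 37 °C against the wild-type strain, values averaged over two biological replicates.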

In this test the test system is Escherichia coli K-12 BW25113. In words: relative growth (OD600 normalised to plate interquartile mean) (fraction); higher = less growth inhibition, active = 0.2 or less. As to conditions: 50 µM; LB; incubation time: overnight (16-24 h).
In the case of `C=CCNC(=O)[C@H]1[C@@H]2C(=O)O[C@@H](c3ccccc3)[C@@H](c3ccccc3)N2[C@@H](c2ccc(OCCO)cc2)[C@]12C(=O)N(C(=O)OCCOC)c1ccc(C#CC3(O)CCCCCC3)cc12`, the relative growth was inactive: 1.01.
On to `C[C@H]1CN([C@H]2C[C@@H](O)[C@@H](CO)O2)C(=O)NC1=O`, for which the relative growth was inactive: 0.958.
`COC(=O)C1=C(C)NC(C)=C(C(=O)NCCCN2CCC(c3ccccc3)(c3ccccc3)CC2)[C@@H]1c1ccc([N+](=O)[O-])cc1`: the relative growth is inactive: 0.941.
With `C[C@@H]1CCCCO[C@@H](CN(C)C(=O)c2ccccc2)[C@@H](C)CN([C@H](C)CO)C(=O)c2cc(NC(=O)Nc3ccc4c(c3)OCO4)ccc2O1`, the relative growth is inactive: 1.01.
On to `CC(C)(c1cc(Br)c(O)c(Br)c1)c1cc(Br)c(O)c(Br)c1`, for which the relative growth was inactive: 0.959.
Regarding `Cn1c(=O)cc(N2CCCC(N)C2)n(Cc2ccccc2C#N)c1=O.O=C(O)c1ccccc1` (centres undefined), the relative growth was inactive: 1.05.
In the case of `NCc1ccc(Br)s1`, the relative growth is inactive: 0.989.
Under `CCC(CC)c1ccc(O)cc1` stands inactive: 0.994; under `C[C@H](CO)N1C[C@H](C)[C@H](CN(C)S(=O)(=O)c2ccc(F)cc2)Oc2ncc(Br)cc2C1=O`, inactive: 0.985.
Consider `C[C@@H]1CN([C@@H](C)CO)C(=O)c2cccc(NC(=O)c3ccncc3)c2O[C@H]1CN(C)C(=O)Nc1ccc2c(c1)OCO2`, for which the relative growth was inactive: 0.991.
For `C[C@@H]1CN([C@H](C)CO)C(=O)CCCn2nncc2CO[C@@H]1CN(C)Cc1ccc2c(c1)OCCN2C`, the relative growth is inactive: 0.994.
In the case of `C[C@@H]1CN([C@H](C)CO)C(=O)c2cc(NC(=O)Nc3cccc4ccccc34)ccc2O[C@@H]1CN(C)C(=O)Nc1ccc(F)cc1` it was inactive: 0.999; in that of `CNC[C@@H]1OCCCC[C@@H](C)Oc2ccc(NC(=O)Nc3ccc(C(F)(F)F)cc3)cc2C(=O)N([C@@H](C)CO)C[C@H]1C`, inactive: 0.965.
Turning to `O=C(O)C[C@H]1C=C[C@@H](NC(=O)c2ccncc2)[C@H](CO)O1`, the relative growth was inactive: 0.998.
Consider `COc1cccc(C#Cc2ccc3c(c2)O[C@H](CN(C)C(C)=O)[C@@H](C)CN([C@H](C)CO)S3(=O)=O)c1`, for which the relative growth is inactive: 0.991.
Turning to `C=C1C(=O)C(O)[C@@H]2O[C@@H]2C1=O` (some centres undefined), the relative growth was inactive: 0.582.
Turning to `CC(=O)N1CCC[C@H]1C(=O)O`, the relative growth was inactive: 0.992.
Consider `C[C@H]1CN([C@@H](C)CO)C(=O)c2cccc(NC(=O)C3CCOCC3)c2O[C@H]1CN(C)Cc1ccc2c(c1)OCO2`, for which the relative growth is inactive: 0.976.
Regarding `O=c1[nH]c(=O)n(C2CC(O)C(CO)O2)cc1I` (centres undefined), the relative growth is inactive: 1.06.
On to `Cc1ccc(OC(=O)N(C)C[C@H]2OCc3ccccc3-c3ccccc3C(=O)N([C@H](C)CO)C[C@H]2C)cc1`, for which the relative growth is inactive: 1.03.
In the case of `C[C@@H]1CN([C@@H](C)CO)C(=O)c2cc(NC(=O)Nc3cccc4ccccc34)ccc2O[C@@H](C)CCCCO[C@H]1CN(C)C(=O)NC1CCCCC1`, the relative growth is inactive: 1.03.
As for `CN1CCN(C(=O)C[C@@H]2CC[C@H]3[C@@H](COC[C@@H](O)CN3C(=O)C3CCOCC3)O2)CC1`, the relative growth is inactive: 0.997.
For the compound `O=C(C[C@@H]1CC[C@H]2[C@@H](COC[C@H](O)CN2CC2CCOCC2)O1)N1CCOCC1`, the relative growth is inactive: 1.
In the case of `O=C(C[C@@H]1CC[C@@H]2[C@H](COC[C@H](O)CN2Cc2cc(F)ccc2F)O1)N[C@@H]1CCN(Cc2ccccc2)C1`, the relative growth is inactive: 0.989.
With `Cl.OC(c1cc(C(F)(F)F)nc2c(C(F)(F)F)cccc12)C1CCCCN1` (centres undefined), the relative growth was inactive: 0.303.
Regarding `COc1ccc(S(=O)(=O)N(C)C[C@@H]2Oc3ccc(NC(=O)CCN4CCOCC4)cc3CC(=O)N([C@@H](C)CO)C[C@H]2C)cc1`, the relative growth was inactive: 0.983.
Under `CN(C)CCCCNC(=O)[C@@H]1C[C@@H]2C(=O)N[C@@H](CCCC[N+](C)(C)C)C(=O)N2[C@@H]1c1cccc(OCCO)c1` stands inactive: 0.973; under `COc1ccccc1S(=O)(=O)N1C[C@@H](O)COC[C@@H]2O[C@H](CC(=O)O)CC[C@H]21`, inactive: 0.994; under `C[C@@H]1CN([C@@H](C)CO)C(=O)CCCn2cc(nn2)CO[C@H]1CN(C)C(=O)CCCN(C)C`, inactive: 1.01.
For `CCS(=O)(=O)NCC[C@H]1CC[C@H](NS(=O)(=O)c2cccc(F)c2)[C@@H](CO)O1`, the relative growth is inactive: 0.998.
For the compound `C[C@H]1CN([C@@H](C)CO)C(=O)c2c(c3ccccc3n2C)-c2ccccc2CO[C@H]1CN(C)C(=O)Nc1ccc(F)cc1`, the relative growth was inactive: 1.02.
In the case of `C[C@@H]1CN([C@@H](C)CO)C(=O)c2cc(NC(=O)NC3CCCCC3)ccc2O[C@H]1CN(C)C(=O)Nc1cccc2ccccc12`, the relative growth is inactive: 1.03.
In the case of `CN(Cc1ccccc1)C(=O)[C@H](Cc1ccc2ccccc2c1)NC(=O)[C@@H]1CCCN1C(=O)Nc1ccccc1[N+](=O)[O-]` it was inactive: 1.04; in that of `CC(C)NC(=O)N[C@H]1C=C[C@H](CC(=O)NCCN2CCCC2)O[C@@H]1CO`, inactive: 1.01; in that of `Cc1noc(C)c1S(=O)(=O)Nc1ccc2c(c1)CC(=O)N([C@@H](C)CO)C[C@H](C)[C@@H](CN(C)S(=O)(=O)c1cccs1)O2`, inactive: 0.981.
As for `Cc1cc(C(=O)Nc2cccc3c2O[C@H](CN(C)Cc2ccncc2)[C@@H](C)CN([C@@H](C)CO)C3=O)n(C)n1`, the relative growth was inactive: 1.01.
Turning to `N#CC1(N[C@@H](Cc2ccccc2)c2ccccc2)CCCCCC1`, the relative growth was inactive: 1.02.
As for `COc1ccc(CN(C)C[C@@H]2OCCCC[C@@H](C)Oc3ccc(NS(=O)(=O)c4cccs4)cc3C(=O)N([C@H](C)CO)C[C@H]2C)cc1`, the relative growth is inactive: 0.997.
Consider `C[C@@H]1CN([C@@H](C)CO)C(=O)Cc2cc(NC(=O)CCCN(C)C)ccc2O[C@H]1CN(C)C(=O)Nc1ccc(F)cc1`, for which the relative growth is inactive: 1.04.
For `Cc1ccc(S(=O)(=O)N[C@@H]2CC[C@H](CC(=O)NCc3ccc(Cl)c(Cl)c3)O[C@@H]2CO)cc1`, the relative growth was inactive: 1.02.
Under `O=c1c(O)c(-c2ccc(O)cc2O)oc2cc(O)cc(O)c12` stands inactive: 1.12; under `CC(=O)N[C@H]1CC[C@H](CCNC(=O)C2CC2)O[C@H]1CO`, inactive: 0.987; under `C[C@H](CO)N1C[C@H](C)[C@H](CN(C)S(C)(=O)=O)Oc2ccc(NC(=O)Cc3cn(C)c4ccccc34)cc2CC1=O`, inactive: 1.03.
As for `CCOC(=O)CC(=O)c1ccn(C)n1`, the relative growth was inactive: 0.998.
In the case of `COc1ccc(C2CNC(=O)C2)cc1OC1CCCC1` (centres undefined) it was inactive: 1.06; in that of `O=C(Nc1ccc(F)cc1)N[C@@H]1C[C@@H]2O[C@@H](CO)CC[C@@H]2O[C@@H]1CCc1ccc(-c2ccccc2)cc1`, inactive: 1.
As to `C[C@H](CO)N1C[C@H](C)[C@H](CN(C)C(=O)c2ccccc2)OCCCC[C@H](C)Oc2ccc(NS(=O)(=O)c3ccccc3)cc2C1=O`, the relative growth was inactive: 0.979.
For `C[C@H](CO)N1C[C@H](C)[C@@H](CN(C)Cc2ccc(-c3ccccc3)cc2)Oc2ccc(NC(=O)Cc3cn(C)c4ccccc34)cc2C1=O`, the relative growth is inactive: 0.981.
Turning to `COC(=O)[C@@H](Cc1ccc(-n2cc(COc3ccccc3/C=C(C)/C=C/C(=O)NO)nn2)cc1)N1CC(/C=C/C2CC2)=C[C@H]1[C@H](O)Cc1ccccc1`, the relative growth was inactive: 1.01.
Take `COc1ccccc1S(=O)(=O)N1C[C@@H](O)COC[C@H]2O[C@H](CC(=O)O)CC[C@@H]21`: the relative growth is inactive: 1.01.
Turning to `C[C@@H]1CN([C@H](C)CO)C(=O)Cc2cc(NC(=O)CCCCCC(=O)Nc3ccccc3N)ccc2O[C@H]1CN(C)C(=O)Nc1cccc2ccccc12`, the relative growth is inactive: 0.963.
In the case of `CS(=O)(=O)SCCN`, the relative growth is inactive: 0.952.
With `C[C@H](CO)N1C[C@H](C)[C@H](CN(C)C(=O)Nc2ccc3c(c2)OCO3)OCCCC[C@H](C)Oc2ccc(NC(=O)CCC(F)(F)F)cc2C1=O`, the relative growth is inactive: 1.02.
On to `C[C@H]1CN([C@@H](C)CO)C(=O)c2cc(NC(=O)c3ccncc3)ccc2O[C@H]1CN(C)S(=O)(=O)c1cccs1`, for which the relative growth was inactive: 1.02.
Take `C[C@H](CO)N1C[C@H](C)[C@H](CN(C)Cc2ccc(C(=O)Nc3ccccc3N)cc2)Oc2ccc(NC(=O)Nc3ccccc3)cc2CC1=O`: the relative growth is inactive: 1.02.
In the case of `CCC(=O)N(C)C[C@@H]1Oc2ncc(C#C[C@H](C)O)cc2C(=O)N([C@@H](C)CO)C[C@@H]1C` it was inactive: 1.
On to `CCCNC(=O)N1C[C@H]2[C@@H](c3ccccc31)[C@H](CO)N2C(=O)CN1CCOCC1`, for which the relative growth is inactive: 1.03.
As for `CCCN(C)C[C@H]1OCCCC[C@H](C)Oc2ccc(NC(=O)CCC(F)(F)F)cc2C(=O)N([C@H](C)CO)C[C@H]1C`, the relative growth was inactive: 0.957.
As to `C[C@@H]1CCCCO[C@@H](CN(C)C(=O)Nc2cccc3ccccc23)[C@@H](C)CN([C@H](C)CO)C(=O)c2cc(NS(=O)(=O)c3cn(C)cn3)ccc2O1`, the relative growth is inactive: 0.99.
As to `C[C@@H]1CN([C@@H](C)CO)C(=O)c2cc(NS(=O)(=O)c3ccc(Cl)cc3)ccc2O[C@@H](C)CCCCO[C@@H]1CN(C)Cc1ccc2c(c1)OCO2`, the relative growth was inactive: 0.946.
For the compound `C[C@H]1CN([C@@H](C)CO)C(=O)c2cc(NC(=O)Nc3ccc(C(F)(F)F)cc3)ccc2O[C@H]1CN(C)Cc1ccc(Oc2ccccc2)cc1`, the relative growth is inactive: 0.989.
`C[C@@H]1CN([C@@H](C)CO)C(=O)c2cc(NC(=O)CCN3CCOCC3)ccc2O[C@@H]1CN(C)Cc1ccc2c(c1)OCO2`: the relative growth is inactive: 1.02.
Under `Cc1ccc(S(=O)(=O)N(C)C[C@@H]2OCCCC[C@@H](C)Oc3ccc(NC(=O)CCCCCC(=O)Nc4ccccc4N)cc3C(=O)N([C@H](C)CO)C[C@@H]2C)cc1` stands inactive: 0.978; under `COCC#Cc1ccc2c(c1)O[C@H](CN(C)C(=O)Nc1ccccc1F)[C@@H](C)CN([C@@H](C)CO)S2(=O)=O`, inactive: 1.01.
